The list shows a part of the results. Sequences were assembled here from the parent chain. Values near 0.05 are background.
B1: TEV protease; numbered along this chain (parent)
chain: MGESLFKGPRDYNPISSSICHLTNESDGHTTSLYGIGFGPFIITNKHLFRRNNGTLVVQSLHGVFKVKDTTTLQQHLVDGRDMIIIRMPKDFPPFPQKLKFREPQREERICLVTTNFQTKSMSSMVSDTSCTFPSGDGIFWKHWIQTKDGQCGSPLVSTRDGFIVGIHSASNFTNTNNYFTSVPKNFMELLTNQEAQQWVSGWRLNADSVLWGGHKVFMVKPEEPFQPVKEATQL

Variants of: B1
Assay: raw area under fraction-flipped curve 0-4 h after induction (AUC4h, not background-subtracted), DNA-recorder readout of cleavage of the substrate (dimensionless); higher = more cleavage of the substrate by the protease variant
Conditions: temperature: 34 °C; time window: 0-4 h after rhamnose induction
Experimental: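 In vivo DNA recorder in E. coli TOP10(DE3) ΔrhaA at 34 °C. Each TEVp single-site mutant (parent TEVp 0) is paired with a single-site variant of the 7-mer TEVs (canonical ENLYFQ|S). The substrate sits between flexible linkers in a Bxb1-sfGFP-TEVs-SsrA fusion, so cleavage stabilises Bxb1 and speeds flipping of a recombination array, read by NGS. The value is the raw area under the fraction-flipped curve over 0-4 h after rhamnose induction (AUC4h), with ≥20 reads per time point. It is not background-subtracted; inactive controls average about 0.047.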
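Further: Bxb1 expression induced with 0.2% (w/v) L-rhamnose at OD600 near 0.5, cultures sampled hourly, flipped fraction per protease–substrate barcode pair counted by paired-end Illumina sequencing.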

Variant | area with substrate ECLYFQS | area with substrate EFLYFQS | area with substrate EILYFQS | area with substrate ELLYFQS | area with substrate EMLYFQS | area with substrate EPLYFQS | area with substrate EQLYFQS | area with substrate ESLYFQS | area with substrate ETLYFQS | area with substrate EVLYFQS | area with substrate EYLYFQS | area with substrate EDLYFQS | area with substrate EGLYFQS | area with substrate EHLYFQS | area with substrate EKLYFQS | area with substrate ERLYFQS | area with substrate EWLYFQS | area with substrate EELYFQS
T30K | 0.113 | 0.0791 | 0.0467 | 0.0966 | 0.111 | 0.122 | 0.122 | 0.0893 | 0.0984 | 0.0946 | 0.0778 | – | – | – | – | – | – | –
Y34I | 0.0594 | 0.105 | 0.0663 | – | – | – | – | 0.0855 | – | – | – | 0.0943 | 0.0783 | 0.0896 | 0.0848 | – | – | –
Y34Q | 0.085 | – | 0.0706 | – | 0.0414 | – | – | 0.0696 | – | 0.0912 | – | – | 0.062 | 0.0634 | 0.0809 | 0.0848 | 0.0487 | –
G37K | 0.0487 | 0.0568 | 0.0495 | 0.0311 | – | 0.061 | 0.0579 | 0.0495 | – | 0.0576 | – | – | 0.0593 | 0.0718 | – | 0.066 | – | 0.068
G37N | 0.0765 | – | 0.069 | 0.0631 | 0.0568 | – | – | 0.0727 | 0.0807 | 0.0595 | – | – | 0.0739 | – | – | 0.0601 | – | –
F41L | 0.0684 | 0.0933 | 0.105 | – | 0.109 | – | 0.0879 | 0.0961 | 0.126 | 0.0886 | 0.117 | – | 0.112 | 0.117 | 0.113 | – | 0.108 | 0.121
I43P | 0.0415 | 0.0403 | 0.0351 | 0.0438 | 0.045 | 0.0495 | 0.0396 | 0.0554 | 0.0453 | 0.0362 | 0.05 | 0.0428 | – | 0.0535 | 0.0457 | 0.0531 | – | 0.0562
I43T | 0.0651 | – | 0.0681 | – | 0.087 | – | 0.0943 | 0.0673 | – | 0.0796 | 0.081 | 0.0937 | 0.0657 | 0.0791 | 0.0731 | 0.0844 | 0.0819 | 0.0967
T44C | 0.1 | 0.0591 | 0.0828 | 0.1 | 0.102 | 0.123 | 0.108 | 0.0901 | 0.0989 | 0.0848 | 0.0893 | – | – | – | 0.0919 | 0.0961 | 0.0523 | 0.0986
K46H | 0.0491 | 0.0109 | 0.055 | – | 0.103 | 0.0576 | 0.0535 | 0.0647 | – | 0.0562 | – | 0.0654 | – | 0.0711 | 0.0522 | 0.0669 | 0.0567 | 0.0586
H47V | 0.0583 | 0.0558 | 0.0528 | 0.0528 | 0.0537 | – | 0.0628 | 0.0591 | 0.0633 | 0.0559 | – | – | 0.0653 | 0.0567 | 0.0558 | 0.0594 | 0.0415 | 0.0536
F49C | 0.0745 | 0.0779 | 0.0643 | 0.039 | 0.0659 | – | 0.0719 | 0.065 | – | 0.0568 | 0.0687 | 0.0557 | 0.0601 | – | 0.0584 | 0.0597 | – | 0.0715
N52H | 0.0664 | – | 0.0672 | – | 0.0714 | 0.0578 | – | – | 0.0726 | 0.0776 | – | – | 0.0702 | 0.0875 | 0.0704 | – | – | 0.0896
N53I | 0.0822 | 0.0747 | – | 0.0718 | 0.0726 | – | 0.0874 | 0.0667 | – | 0.0631 | 0.0755 | – | 0.0667 | 0.0737 | 0.0909 | 0.076 | – | –

Source: the supplement of paper PMC12217912
